Laboratory results published in the supplement of paper PMC11417369.
The other results are listed elsewhere or left out.

System: PfHDP1 homeodomain (GST-tagged)
Assay: gcPBM binding intensity (ln(normalized median fluorescence intensity)); higher = stronger DNA binding
Procedure, shortened: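 An Agilent 4 × 180k array of primer-extended double-stranded 36-bp intergenic genomic probes, with negative controls, was incubated for 1 h with GST-tagged P. falciparum DNA-binding domains expressed in E. coli. Alexa488 anti-GST antibody detected bound protein, scanned at 488 nm. Binding intensity is the highest Masliner-normalised natural-log median intensity across replicate spots of either probe orientation.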

Sequence | gcPBM binding intensity (ln)
ATGTATATGTCTATATGTACTTATATTTTATTTTTT [XGTACX_site5902] | 6.17
TGTTTTATCTTATATGCACACGATAAAAAAAAAAAA [CACACA_site2674] | 9.7
TTACAAGTAAAAGGTACACACATTATAAATACAAAT [CACACA_site4752] | 6.93
ATATATTTTAATTGTTGTACATATTAAATAAATAGG [XGTACX_site2311] | 6.54
ATTTTTTTTTTTTATAGTGGATCCACATTTGCCATT [CACACA_negctrl_site1284] | 6.47
TATATTTTATATATGGTGCAACTTTTATTTAAATAA | 10.7
ACATAAATATAAACGTGTACATATATAAATATATAT [XGTACX_site7293] | 6.5
CATATATAAAAAAACACACACATATATATATATATA [CACACA_site1195] | 9.25
CCCACAGACGGACACACACACACACCGACACATATA [CACACA_site4356] | 7.01
TTTTGTGCTTAAAAAAGTACAAAATATAAAAAAAAT [XGTACX_site7876] | 6.47
TGCAGTCTGGAGAAACGTACACAGTATCTGGTAACC [XGTACX_site2543] | 6.02
TTCTATTTTAATATCTGTACATAATAAAGATCCATT [XGTACX_site1142] | 6.3
AAAATTGAACCTGACAAGGTATTTTATTATTTATTA [TGCATGCA_negctrl_site181] | 5.78
AGTTTTTATAAAAATAGTACATATTTATTAATCTGT [XGTACX_site5881] | 6.06
CATTATTCATTTTGGATGCACTGACAGAAAAATGGT | 7.62
ATGCTCAGGAAAACATGTACAAAATTATTTGTTATA [XGTACX_site4306] | 6.36
TGAGTACACAATAATACATGCAATTCCTATGAATAT [TGCATGCA_site851] | 6.72
ATAAATATTAAAAGTACACACAGATACACTAATTAT [CACACA_site1808] | 6.79
ATATGACATAAAACATGTACATGTTCATAAATATAT [XGTACX_site1923] | 6.71
TACACTTTTTATGAAGTGCATGTATAGCTCTTAAAA [GTGCAC_site9595] | 7.25
ATTTACATAATAAAATGTACATTTATAAATATTATA [XGTACX_site1901] | 6.36
ATAAACATATAAAAAGTGCATATTCATATATCTACT | 6.98
AATACACTAAACAAAAGTACAAAAATATTCTACAAA [XGTACX_site5162] | 6.22

Sequence | gcPBM binding intensity (ln)
ATGGCCTCATTTGGGACACACAACATAAAATATATA [CACACA_site753] | 6.65
AAATATATTTTATGTACACACAAAATTAAGGGATAT [CACACA_site4881] | 6.75
TGTTAATTATAAATTTGTACTTATTTTTACAAAATA [XGTACX_site6598] | 6.48
TTATAATAATATAATACATGCATATATATTTAAATA [TGCATGCA_site903] | 6.6
AATTTAATATAATGCACACATAAAACAAAAACAAAA [CACACA_site529] | 10.5
TATTATCGTTCTCATACACACAAAATATACATACAC [CACACA_site2643] | 7.05
TACGTAAATGTGTGTGTGCACGTTATATATTAATAT [GTGCAC_site9976] | 9.38
CATTTTTTATTTCCTTGTACGAATAAAATATATTTA [XGTACX_site6844] | 6.69
AAAAAAAAAAAAAACATACACACAATAAAATAGGGG [CACACA_site2398] | 6.84
ATATAATAATAAAGACGTACAAATGTATATATATAC [XGTACX_site3123] | 7.02
ATGTAAGTTGTGCATTCACACACATATATATATATA [CACACA_site9086] | 9.58
ATTTTTTTTTTTTTTTTTTTTTTATTCTTGTAATCT [CACACA_negctrl_site1039] | 5.84
GAATATTAATTCATACGTACTTATATATAAGTATAT [XGTACX_site3707] | 6.39
AAAATGAATAAAAATACACACATATCTGTTATTCTC [CACACA_site5474] | 6.33
TCACTATAATAATTTACACACATTTTAAGAAAATGT [CACACA_site3530] | 6.61
TATAAAAATGGGCACACACACACATATATATATTTA [CACACA_site1527] | 6.8
TATTTAAATTTTAAGTGTACATATTTATTTATATCT [XGTACX_site6545] | 6.47
ATATATATATATATAACACACGCAAAAAAATTAAAT [CACACA_site8395] | 9.06
AAAAAAAAAAAAATCACACATAATATAGAATATGTA [CACACA_site4993] | 6.13
AACTTAAAAAATAAATGTACATAAATATAAACATAT [XGTACX_site2987] | 6.59
TTTTTTAACAAAAATAAAACATAACTGAATTAAAAG [GTGCAC_negctrl_site244] | 6.41
CTTCCTATATTTTACTGTACTTTTTTTTTTTTTTTT [XGTACX_site4016] | 6.51
AAACCTTTACATCGTTTGCACTATATTGATATGTGT [GTGCAC_site9686] | 8.85

Sequence | gcPBM binding intensity (ln)
CATACATACATACATACACACACATATATATATATA [CACACA_site8593] | 9.27
ACGAATTAAATTTGCTGTACCAAAAAGAAAACAATA [XGTACX_site5511] | 6.33
GCTTCTTAATATCATACACACATAGATATATTTATA [CACACA_site5676] | 7.05
GGAGACTTTGTATTGGGTACGTATTTCAATGCATGT [XGTACX_site1596] | 6.31
TTATAATGAAATATATTCTTATTCTTTTTTTTTTTT [GTGCAC_negctrl_site384] | 6.01
TAAAATGTACAGGACGCACACACATATATATATATA [CACACA_site3673] | 9.25
TTTTTTTTTTTTCATTGTACTCTTAAAAATTCAACT [XGTACX_site3154] | 6.24
ATTAAAATTTAAAATACACACACATATATATAATAT [CACACA_site8612] | 6.97
TATTTTTTTTTTTTTTTACACACTATAGGGAAAAAA [CACACA_site8583] | 6.38
AACAACAACTAATATGCACACATTTAAAAACAAAAT [CACACA_site2440] | 9.7
AAATAAAGCATGTGCTGTACAAACGAAATATTTAAG [XGTACX_site3146] | 6.92
TGTCATGATACATACACACACATACCCATACCCATA [CACACA_site5211] | 6.72
AACAAATGTTAAATGTTTAAGGAGAAAATAAAGACA [CACACA_negctrl_site1163] | 6.75
AAAACGAAACATCTGTGTATAAGTCTATATTATTAT [XGTACX_negctrl_site301] | 6.39
GAAAACATAAAAATATGTACTTAAAATATATTTTGT [XGTACX_site868] | 6.27
TTTATGTGTATTAAGTGTACACATATAGTGTATTTT [XGTACX_site999] | 7.03
ATATATAAGGAAAAAAGTACTTATATTTTTTTTTTG [XGTACX_site1909] | 5.95
AGATTAAAATAATATAAACACACATATACTTTTTTC [CACACA_site8085] | 6.33
ATAATTAAAAAAAATTGTACATATAAATAGAAGATT [XGTACX_site230] | 6.8
TAGGTATGCTCTCAATGTACATAAAATAATTTTACT [XGTACX_site6556] | 8.1
AAAAAAAAAAGAATAGCACACACACCGATATAAATA [CACACA_site8111] | 7
TTTAAATACAGACATACACACATACACCCACATATA [CACACA_site8078] | 6.93
TAAGAAATAAATAGTACACACATAGACACAGACACA [CACACA_site4934] | 7.04

Sequence | gcPBM binding intensity (ln)
TGTTTTTATTTATTCTGTACTGAAGAGAGTTATATA [XGTACX_site8859] | 6.56
GTATATGAGAAAAAAAGTACATGCACAAAATGTATA [XGTACX_site6441] | 7.96
ATATAAATTTTTTATGAACACACAAATACAGACACT [CACACA_site8848] | 7.19
AATACAAGAACTGACACACATACATACTACATTTTA [CACACA_site2829] | 6.81
ATATTTATATATAGTAGTACTTTCAATAATTTAAAT [XGTACX_site7276] | 6.45
AAAGAAAGAAGACACACACACATATATAAATATCAA [CACACA_site7715] | 6.73
AAAAAATTAAAAATACGTACATATATACATATATAT [XGTACX_site4621] | 6.22
TATGATATTTATATGCGTACTGAAGTATGCCTATTT [XGTACX_site6133] | 6.33
TCTTAAAATATATAGGTGCAAAAAAAAAAAAAAAAA | 8.62
ATATTCATGTTGATATGTACTTATTCTATATTGAAT [XGTACX_site8347] | 6.31
ATCAGTGATTAGGTTATATATAAAAATGAACTAATA [GTGCAC_negctrl_site647] | 6.64
TATATATATATATATATACACACTTGTGCAGAATAT [CACACA_site2216] | 9.87
GATATTCTATAAAAAAGTACAAATATTTTAAAAAAT [XGTACX_site2177] | 6.2
TAAATCCTTTACAACACACACACAAAAAAAAAAAAA [CACACA_site643] | 6.53
AGCATTAATTATTTCACACATATATATATATATATA [CACACA_site4889] | 9.57
TTTTTTTTTTTTTTTTTTTATGTATACATATTTATA [TGCATGCA_negctrl_site234] | 6.37
TCATTTTAAAAAAATAGTACTTTAAGAAACTTTTAT [XGTACX_site602] | 6.48
CCAAATTTATTTTGTAGTACTCCGTATAGATCAACA [XGTACX_site7945] | 6.27
TGAGATATAAAAATATGTACTTATGTATAAATATTT [XGTACX_site7746] | 6.09
ATTATAAAAATATATTGTACACAAAAATGTTTATAT [XGTACX_site5066] | 6.11
